# In PubChem BioAssay AID588591 (National Center for Advancing Translational Sciences (NCATS), 2011):
# The campaign covered roughly 390,000 compounds. About 4,700 (1.2%) were called active. Inconclusive means that the source gave no clear call. Such entries were picked first, then a sample of the others. Calls follow the shape of the dose curve; as a rule, active = well fitted inhibition curve with a large enough effect; inconclusive = small, poorly fitted or top-dose-only effect, or another doubt; inactive = no such curve, though single readings can be large or run the other way. Potencies beside an inconclusive call are fits to weak or partial responses and may not hold up.
# Target: DNA polymerase eta (Homo sapiens) (UniProt Q9Y253)
# Experiment: qHTS for Inhibitors of Polymerase Eta
# Conditions: recombinant Pol eta, fluorescent DNA replication assay; series mostly up to 114 µM
# How it was run: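 Fluorescent replication assay: 50 nM final substrate added after a 15 min room-temperature compound preincubation with 10 nM enzyme. Signal taken at 0 min and again at 10 min.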
# Potency is read from the fitted curve at half-maximal effect; tags tell the direction and shape of the fitted curve.
# Sequence of UniProt Q9Y253 (Q9Y253 whole entry, looked up): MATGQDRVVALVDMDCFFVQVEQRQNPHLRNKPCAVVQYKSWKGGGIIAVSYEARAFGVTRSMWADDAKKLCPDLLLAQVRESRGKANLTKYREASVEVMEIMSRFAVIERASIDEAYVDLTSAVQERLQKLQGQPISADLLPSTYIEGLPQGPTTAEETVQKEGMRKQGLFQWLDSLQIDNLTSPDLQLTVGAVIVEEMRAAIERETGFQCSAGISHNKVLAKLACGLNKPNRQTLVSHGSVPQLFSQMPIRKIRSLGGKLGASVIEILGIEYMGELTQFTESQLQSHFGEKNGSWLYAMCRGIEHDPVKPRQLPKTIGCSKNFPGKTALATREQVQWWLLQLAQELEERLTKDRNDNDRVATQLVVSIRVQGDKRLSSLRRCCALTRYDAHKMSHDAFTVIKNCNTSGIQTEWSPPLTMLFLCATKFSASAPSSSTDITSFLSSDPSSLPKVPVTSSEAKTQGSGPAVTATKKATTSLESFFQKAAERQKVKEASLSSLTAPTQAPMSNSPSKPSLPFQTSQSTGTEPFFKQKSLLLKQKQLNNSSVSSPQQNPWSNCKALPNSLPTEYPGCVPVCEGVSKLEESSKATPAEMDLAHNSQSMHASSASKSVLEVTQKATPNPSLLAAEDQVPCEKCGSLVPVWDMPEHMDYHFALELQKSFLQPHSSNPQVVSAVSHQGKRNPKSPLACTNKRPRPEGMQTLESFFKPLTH
row,SMILES,Potency
1,O=C(/C=C/c1ccco1)Nc1nc(-c2ccccn2)cs1,"inconclusive: 56.2 µM [inhibitor, partial curve, poor fit]"
2,COc1ccc(OCCCC(=O)OCC(=O)Nc2ncc(Cl)cc2Cl)cc1,active: 39.8 µM
3,COc1ccc(CC(=O)Nc2ccc(S(=O)(=O)Nc3cc(C)on3)cc2)cc1OC,inactive
4,O=C(O)CCCC[C@@H]1CCSS1,"inconclusive: 0.251 µM [inhibitor, full curve, poor fit]"
5,COc1ccc(S(=O)(=O)N2CCC(C(=O)NCc3cccnc3)CC2)cc1Cl,"inconclusive: 100 µM [inhibitor, partial curve, poor fit]"
6,COc1ccc(C2c3ccc4ccccc4c3Oc3ncn(CCCO)c(=N)c32)cc1 (configuration not stated),"inconclusive: 89.1 µM [inhibitor, partial curve, poor fit]"
7,Cn1c(SCc2cc(=O)c3cc(Cl)ccc3[nH]2)nnc1-c1ccccc1,inactive
8,CC1=C(C(=O)N(C(C)C)C(C)C)CC(CC(=O)NCCc2ccccn2)C(=O)N1Cc1ccccc1 (configuration not stated),inactive
9,CCS(=O)(=O)N1CCc2cc(C(=O)Nc3cccc(C(C)=O)c3)ccc21,inactive
10,CC(OC(=O)c1cccc(O)c1)C(=O)N(C)Cc1ccccc1 (configuration not stated),inactive
11,Cc1c(C(=O)O)sc(S(=O)(=O)N2CCN(C(=O)Cc3ccc(F)cc3)CC2)c1C(=O)O,"inconclusive: 17.8 µM [inhibitor, partial curve]"
12,Cc1[nH]n(-c2ccccc2)c(=O)c1C=Nc1ccc(S(=O)(=O)N=C(N)N)cc1,"inconclusive: 25.1 µM [inhibitor, full curve, poor fit]"
13,Cc1cc(N2CCOCC2)ccc1/C=C1/SC(=O)NC1=O,inactive
14,COc1cc(C(=O)OCC(=O)Nc2ccc(OC(F)F)cc2)cc(OC)c1OC,"inconclusive: 79.4 µM [inhibitor, partial curve, poor fit]"
15,COc1cc(/C=N/Nc2nn3cnnc3c3ccccc23)ccc1O,"inconclusive: 31.6 µM [inhibitor, partial curve]"
16,N#C/C(=C\c1ccc[nH]1)C(=O)Nc1ccccc1[N+](=O)[O-],"inconclusive: 15.8 µM [inhibitor, full curve]"
17,COc1ccc(CN(C#N)c2nc(SC)nc(N(C)C)n2)cc1,"inconclusive: 44.7 µM [inhibitor, partial curve, poor fit]"
18,O=C(NNC(=O)C1CCN(Cc2cccc(F)c2)CC1)c1cccs1,inactive
19,O=C(O)c1ccc(N/N=C/c2cn(Cc3ccccc3F)c3ccccc23)cc1,"inconclusive: 89.1 µM [inhibitor, single point]"
20,O=C(c1ccccc1)c1cccc2ccccc12,inactive
21,COc1ccc(C(=O)CCC(=O)Nc2ccc(F)cc2F)cc1,inactive
22,COc1cccc2cc(C(=O)Oc3ccccc3)c(=O)oc12,"inconclusive: 50.1 µM [inhibitor, partial curve]"
23,O=C(Cc1cccs1)Nc1ccc(-c2nc3ccccc3[nH]2)cc1,"inconclusive: 39.8 µM [inhibitor, single point]"

row,SMILES,Potency
1,O=C(Nc1nccs1)c1sc2cc(Cl)ccc2c1Cl,"inconclusive: 35.5 µM [inhibitor, single point]"
2,Cc1ccc(SCCC(=O)OCC(=O)Nc2ncc(Cl)cc2Cl)cc1,"inconclusive: 79.4 µM [inhibitor, partial curve, poor fit]"
3,COc1cccc(/C=N/NC(=O)CN(CCc2ccccc2)S(=O)(=O)c2ccc(NC(C)=O)cc2)c1,"inconclusive: 79.4 µM [inhibitor, partial curve, poor fit]"
4,O=S1(=O)CCN2C(c3ccco3)=CSC2=N1,"inconclusive: 31.6 µM [inhibitor, partial curve, poor fit]"
5,N#Cc1c(NC(=O)CN2CCCCC2)sc2c1CCC2,active: 28.2 µM
6,CC(C)c1ccc(OCc2ccc(C(=O)O)o2)cc1,active: 22.4 µM
7,Cn1c(SCC(=O)Nc2sc3c(c2C#N)CCC3)nnc1C1COc2ccccc2O1 (configuration not stated),"inconclusive: 89.1 µM [inhibitor, partial curve, poor fit]"
8,O=C1CNC(=O)/C1=C\c1ccc(O)cc1,"inconclusive: 22.4 µM [inhibitor, partial curve, poor fit]"
9,Cc1ccc2c(CN(C)Cc3ccccc3)cc(=O)oc2c1C,"inconclusive: 22.4 µM [inhibitor, full curve, poor fit]"
10,NS(=O)(=O)c1ccc(NC(=O)C2Cc3ccccc3CN2C(=O)c2ccco2)cc1 (configuration not stated),active: 20 µM
11,COc1ccc(C=NN=C2c3ccccc3-c3ccccc32)cc1O,"inconclusive: 10 µM [inhibitor, partial curve, poor fit]"
12,COc1ccc(OC)c(C(=O)CSc2ncc3c(n2)-c2ccccc2N(Cc2ccccc2C)S3(=O)=O)c1,inactive
13,Nc1cc2nn(-c3ccccc3)nc2cc1Cl,"inconclusive: 7.94 µM [inhibitor, partial curve, poor fit]"
14,COc1ccc(OCC(=O)N(Cc2sccc2C)C2CCS(=O)(=O)C2)cc1 (configuration not stated),"inconclusive: 89.1 µM [inhibitor, partial curve, poor fit]"
15,CSCCC(NC(=O)c1ccco1)C(=O)Nc1ccc(C)cn1 (configuration not stated),"inconclusive: 35.5 µM [inhibitor, partial curve, poor fit]"
16,COC(=O)c1sccc1-n1cccc1C(=O)N1CCOCC1,"inconclusive: 89.1 µM [inhibitor, partial curve, poor fit]"
17,C/C(=N\NC(=S)NCc1ccccc1)c1ccc2c(c1)OCCO2,"inconclusive: 79.4 µM [inhibitor, partial curve, poor fit]"
18,Cc1c(NC(=O)c2cccc(-c3cc4ccccc4oc3=O)c2)cccc1-c1nc2ncccc2o1,"inconclusive: 3.98 µM [inhibitor, partial curve, poor fit]"
19,Cc1cc2cc(CNC(=O)c3ccco3)ccc2n1C,"inconclusive: 39.8 µM [inhibitor, partial curve, poor fit]"
20,COc1ccc2c(c1)c(=O)oc1c(C)c(OCc3cc(C(=O)O)oc3C)ccc12,active: 14.1 µM
21,Oc1ccc(/C=N/n2c(COc3ccccc3)n[nH]c2=S)cc1O,"inconclusive: 28.2 µM [inhibitor, partial curve]"
22,COc1ccc(S(=O)(=O)N2CCN(CC(=O)c3ccc(O)c(O)c3)CC2)cc1,"inconclusive: 11.2 µM [inhibitor, full curve, poor fit]"
23,COc1ccccc1N(C(=O)CCl)c1cn(C(C)=O)c2ccccc12,active: 44.7 µM

row,SMILES,Potency
1,Cc1ccc(C(=O)Cn2c(NCCO)nc3ccccc32)cc1,"inconclusive: 100 µM [inhibitor, partial curve, poor fit]"
2,O=C(O)c1cc(C(=O)O)cc(-c2ccc(/C=c3/sc4nc5ccccc5n4c3=O)o2)c1,active: 3.55 µM
3,CCOC(=O)c1ccc(NC(=S)NCCc2ccccc2F)cc1,"inconclusive: 50.1 µM [inhibitor, partial curve, poor fit]"
4,CCN1C(=O)[C@H]2[C@@H](c3ccc(C(F)(F)F)cc3)N[C@]3(CCCN(Cc4ccc(C)cc4)C3=O)[C@H]2C1=O,inactive
5,Cc1cc(C=C2C(=O)c3ccccc3C2=O)c(C)n1-c1ccc(C(=O)O)cc1,active: 25.1 µM
6,CCCCCCn1c(=O)c(Cc2ccccc2)c(O)c2ccccc21,"inconclusive: 89.1 µM [inhibitor, single point]"
7,O=C1Nc2ccc(S(=O)(=O)NCc3ccco3)c3cccc1c23,active: 20 µM
8,CCOC(=O)Cc1[nH]nc2c1C(c1ccoc1)C(C#N)=C(N)O2 (configuration not stated),inactive
9,COc1ccc2[nH]c(O)c(N=NC(=O)c3ccc(NS(=O)(=O)c4cccs4)cc3)c2c1,active: 3.55 µM
10,COc1cccc2cc(C(=O)CS(=O)(=O)c3ccc(C)cc3)c(=O)oc12,"inconclusive: 79.4 µM [inhibitor, single point]"
11,COc1ccc(C=C2CS(=O)(=O)CC(=Cc3ccc(OC)cc3)C2=O)cc1,active: 50.1 µM
12,O=C(NCc1ccccc1)C(=O)NCC(c1cccs1)S(=O)(=O)c1cccs1 (configuration not stated),"inconclusive: 79.4 µM [inhibitor, partial curve, poor fit]"
13,COc1c(/C=N/NS(=O)(=O)c2ccc(C)cc2)c(CCN(C)C(C)=O)cc2c1OCO2,"inconclusive: 100 µM [inhibitor, partial curve, poor fit]"
14,NC(=O)c1ccc(NC(=O)COC(=O)/C=C/c2cn(-c3ccccc3)nc2-c2cccnc2)cc1,"inconclusive: 12.6 µM [inhibitor, partial curve, poor fit]"
15,Cc1ccc(Nc2nc(N)nc(COC(=O)C3=COCCO3)n2)cc1,inactive
16,CCN1C(=O)S/C(=C\c2ccc(N3CCOCC3)cc2C)C1=O,"inconclusive: 3.98 µM [inhibitor, full curve, poor fit]"
17,COc1ccccc1N1CCN(C(=O)CCC(=O)N2CCN(c3ccccc3OC)CC2)CC1,inactive
18,O=C(O)c1ccccc1N/N=C\c1ccnc2ccccc12,"inconclusive: 25.1 µM [inhibitor, partial curve, poor fit]"
19,Cc1ccc(-c2nc(N)sc2CC(=O)OCC(=O)NCCC(C)C)cc1,"inconclusive: 28.2 µM [inhibitor, single point]"
20,OCCNc1ncnc2c1sc1nc(N3CCOCC3)c3c(c12)CCC3,"inconclusive: 25.1 µM [inhibitor, partial curve, poor fit]"
21,COc1ccc(NC(=S)NNc2ccc([N+](=O)[O-])cc2S(=O)(=O)Nc2ccc(C)cc2C)cc1,"inconclusive: 89.1 µM [inhibitor, single point]"
